In PMC9911399, “Two distinct binding modes provide the RNA-binding protein RbFox with extraordinary sequence specificity” one finds binding signal data, which are given here for 20 molecules.

Sequences and labels used below:
B1: AGGUGGG (DNA:RNA)
RNA: GGGAGACCGGAAUUCAGAUUGUCCAGGUGGGUUAAAUCCCGUCGUAGCCACCA
DNA 1: CAATCTGAATTCCGGTCTCCC
DNA 2: TGGTGGCTACGACGGGATT
B2: GCUUUAG (DNA:RNA)
RNA: B1 RNA with A25G, G26C, G27U, G29U, G30A
DNA 1: CAATCTGAATTCCGGTCTCCC
DNA 2: TGGTGGCTACGACGGGATT
B3: CGCAUUG (DNA:RNA)
RNA: B1 RNA with A25C, G27C, U28A, G29U, G30U
DNA 1: CAATCTGAATTCCGGTCTCCC
DNA 2: TGGTGGCTACGACGGGATT
B4: CACAUCA (DNA:RNA)
RNA: GGGAGACCGGAAUUCAGAUUGUCCCACAUCAUUAAAUCCCGUCGUAGCCACCA
DNA 1: CAATCTGAATTCCGGTCTCCC
DNA 2: TGGTGGCTACGACGGGATT
B5: CAGAGUG (DNA:RNA)
RNA: B1 RNA with A25C, G26A, U28A, G30U
DNA 1: CAATCTGAATTCCGGTCTCCC
DNA 2: TGGTGGCTACGACGGGATT
B6: GGCUUUG (DNA:RNA)
RNA: B1 RNA with A25G, G27C, G29U, G30U
DNA 1: CAATCTGAATTCCGGTCTCCC
DNA 2: TGGTGGCTACGACGGGATT
B7: UCGAAAA (DNA:RNA)
RNA: B4 RNA with C25U, A26C, C27G, U29A, C30A
DNA 1: CAATCTGAATTCCGGTCTCCC
DNA 2: TGGTGGCTACGACGGGATT
B8: AAAGUGG (DNA:RNA)
RNA: B1 RNA with G26A, G27A, U28G, G29U
DNA 1: CAATCTGAATTCCGGTCTCCC
DNA 2: TGGTGGCTACGACGGGATT
B9: CGACGUA (DNA:RNA)
RNA: B1 RNA with A25C, G27A, U28C, G30U, G31A
DNA 1: CAATCTGAATTCCGGTCTCCC
DNA 2: TGGTGGCTACGACGGGATT
B10: GCGAGCU (DNA:RNA)
RNA: B1 RNA with A25G, G26C, U28A, G30C, G31U
DNA 1: CAATCTGAATTCCGGTCTCCC
DNA 2: TGGTGGCTACGACGGGATT
B11: ACCGUAG (DNA:RNA)
RNA: B1 RNA with G26C, G27C, U28G, G29U, G30A
DNA 1: CAATCTGAATTCCGGTCTCCC
DNA 2: TGGTGGCTACGACGGGATT
B12: CAUGUUU (DNA:RNA)
RNA: B4 RNA with C27U, A28G, C30U, A31U
DNA 1: CAATCTGAATTCCGGTCTCCC
DNA 2: TGGTGGCTACGACGGGATT
B13: UAACGUG (DNA:RNA)
RNA: B1 RNA with A25U, G26A, G27A, U28C, G30U
DNA 1: CAATCTGAATTCCGGTCTCCC
DNA 2: TGGTGGCTACGACGGGATT
B14: GCAAAGA (DNA:RNA)
RNA: B4 RNA with C25G, A26C, C27A, U29A, C30G
DNA 1: CAATCTGAATTCCGGTCTCCC
DNA 2: TGGTGGCTACGACGGGATT
B15: AAUAGUG (DNA:RNA)
RNA: B1 RNA with G26A, G27U, U28A, G30U
DNA 1: CAATCTGAATTCCGGTCTCCC
DNA 2: TGGTGGCTACGACGGGATT
B16: UUUAAAC (DNA:RNA)
RNA: B4 RNA with C25U, A26U, C27U, U29A, C30A, A31C
DNA 1: CAATCTGAATTCCGGTCTCCC
DNA 2: TGGTGGCTACGACGGGATT
B17: UACGCCU (DNA:RNA)
RNA: B4 RNA with C25U, A28G, U29C, A31U
DNA 1: CAATCTGAATTCCGGTCTCCC
DNA 2: TGGTGGCTACGACGGGATT
B18: UUCGCCC (DNA:RNA)
RNA: B4 RNA with C25U, A26U, A28G, U29C, A31C
DNA 1: CAATCTGAATTCCGGTCTCCC
DNA 2: TGGTGGCTACGACGGGATT
B19: ACCAACA (DNA:RNA)
RNA: B4 RNA with C25A, A26C, U29A
DNA 1: CAATCTGAATTCCGGTCTCCC
DNA 2: TGGTGGCTACGACGGGATT
B20: GUUCACC (DNA:RNA)
RNA: B4 RNA with C25G, A26U, C27U, A28C, U29A, A31C
DNA 1: CAATCTGAATTCCGGTCTCCC
DNA 2: TGGTGGCTACGACGGGATT

Changes are numbered by the printed parent chain; changes in the protein carry UniProt numbers. This is one part of the list.

The experiment has as its target T1, RBFOX1 RRM RbFoxmut (Fox-RRM*) (Homo sapiens, UniProt Q9NWB1 109-208, R118D;E147R;N151S;E152T).
T1 sequence: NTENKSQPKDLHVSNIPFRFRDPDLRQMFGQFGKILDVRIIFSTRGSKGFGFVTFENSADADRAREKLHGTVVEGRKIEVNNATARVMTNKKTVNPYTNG
Kind of experiment: EMSA; HiTS-Eq, 1 nM pool, 10 min; buffer printed only for the single-RNA assays: 10 mM Tris pH 7.5, 150 mM NaCl, 3.4 mM EDTA, 0.001% NP-40, 30 C. Particulars: tags: His6 N-terminal (pET28a); label: 5' 32P. The method in brief: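 A pool of RNA with 7 randomized nucleotides, 5′-radiolabelled and with DNA-annealed flanks, was equilibrated at 1 nM for 10 min in 50 µL with purified RbFox RRM, wild type or mutant, across increasing protein concentrations. Free RNA was separated by 8% native PAGE, excised, reverse-transcribed, barcoded by PCR and sequenced. Relative association constants were obtained from read-count changes of each RNA species versus the control reaction and normalised to the cognate motif.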
A general note: A gel shift assay detects complexes by their altered migration in electrophoresis.
Take B1: the binding signal is 0.105 KA relative to UGCAUGU. For the molecule B2, the binding signal is 0.123 KA relative to UGCAUGU. Next, B3: 0.179 KA relative to UGCAUGU; B4: 0.117 KA relative to UGCAUGU; B5: 0.156 KA relative to UGCAUGU. Next, B6: 0.204 KA relative to UGCAUGU; B7: 0.091 KA relative to UGCAUGU; B8: 0.089 KA relative to UGCAUGU.

For B9, the binding signal is 0.125 KA relative to UGCAUGU. Next, B10: 0.081 KA relative to UGCAUGU; B11: 0.117 KA relative to UGCAUGU. Next, B12: 0.139 KA relative to UGCAUGU; B13: 0.104 KA relative to UGCAUGU. Next, B14: 0.0604 KA relative to UGCAUGU.

Consider B15, for which the binding signal is 0.132 KA relative to UGCAUGU. Next, B16: 0.0686 KA relative to UGCAUGU; B17: 0.11 KA relative to UGCAUGU. Next, B18: 0.0579 KA relative to UGCAUGU; B19: 0.101 KA relative to UGCAUGU; B20: 0.0751 KA relative to UGCAUGU.
